Source: PubChem BioAssay AID1508642 (National Center for Advancing Translational Sciences (NCATS), 2021)
The whole screen tested about 43,000 compounds, of which about 200 (0.47%) were called active. Inconclusive results (about 12%) are left out. Calls come from the whole dose curve; as a rule, active = well fitted cell-killing curve with a large enough effect; inconclusive = small, poorly fitted or top-dose-only effect, or effect the other way; inactive = flat fitted curve, though single readings scatter. This is one part of the list.

assay: Cell viability qHTS assay in S16 Pmp22-F2sN cells; conditions: S16 Pmp22-F2sN Schwann cells (luciferase reporters placed in the Pmp22 gene) viability, CellTiter-Glo, 24 h; series mostly up to 57.5 µM; activity change, negative = cytotoxicity: at the top concentration; note: nearly all actives have a fitted effect of over 65% in size
Summary of the method: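 Luminescence from CellTiter-Glo, read by CCD camera after a 15 min room-temperature incubation, served as the viability signal. Reporter Schwann cells (S16 Pmp22-F2sN) had been treated with pin-transferred compounds for 24 h at 37C.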
% is set by controls: 0 for no effect and ±100 for the full control effect.

Structure (SMILES)	activity change, negative = cytotoxicity
COc1cccc(OC)c1C(=O)Nc1nc2c(s1)CCc1ccccc1-2	inactive: 18.7%
Cc1cccc(NC(=O)c2ccc3c(c2)CCN3S(=O)(=O)c2ccccc2)c1C	inactive: -2.97%
Cc1nc2c(c(C)c1CCC(=O)NCc1ccc(Cl)cc1)c(=O)n(C)c(=O)n2C	inactive: 7.61%
COc1ccc(N2CC(C(=O)NCc3nnnn3-c3ccc(C)c(C)c3)CC2=O)cc1 (stereo unspecified)	inactive: -1.57%
O=C(Cn1c(SCCOc2ccc(Cl)cc2)nc2ccccc21)N1CCCCC1	inactive: 1.23%
COc1ccc(-c2nnc3n2N(C(C)=O)C(c2ccc(Cl)c(Cl)c2)=C(C(C)=O)S3)cc1	inactive: -3.34%
Cc1cccc(N2C(=O)CSC23C(=O)N(CC(=O)NCc2ccccc2Cl)c2ccccc23)c1 (stereo unspecified)	inactive: -25.4%
COc1ccccc1NC(=O)Cn1c(=O)c(CNc2ccc(C)cc2)cc2cc3c(cc21)OCCO3	inactive: 3.33%
COc1ccc(CCNC(=O)C(=O)NCC(c2ccco2)S(=O)(=O)c2ccccc2)cc1 (stereo unspecified)	inactive: 6.62%
COc1ccc(NC(=O)c2ccc3c(SCC(=O)O)c4c(nc3c2)CCC4)c(OC)c1	inactive: 2.22%
CCOc1ccccc1N1CC(c2nc3ccccc3n2Cc2c(C)cc(C)cc2C)CC1=O (stereo unspecified)	inactive: 11.1%
COc1ccc(-c2nc(C)c(CCNC(=O)C(=O)Nc3cc(C)cc(C)c3)s2)cc1OC	inactive: 13.7%
COc1ccc(-c2nc(SCc3cc(=O)c4cc(C)ccc4[nH]3)n[nH]2)cc1	inactive: -22.6%
COc1ccccc1N1CCN(S(=O)(=O)CCNC(=O)COc2ccc(C(C)C)cc2)CC1	inactive: -24.2%
Cc1sc2ncn(CC(=O)N3CCN(c4cccc(Cl)c4)CC3)c(=O)c2c1S(=O)(=O)N1CCN(c2ncccn2)CC1	inactive: 11.1%
Cc1cccc(N2CCN(C(=O)c3cc4c(=O)n(C)c5ccccc5c4s3)CC2C)c1 (stereo unspecified)	inactive: 3.65%
CCOCCCNC(=O)C(c1ccc(OC)cc1)N(Cc1ccc2c(c1)OCO2)C(=O)c1ccccc1O (stereo unspecified)	inactive: -7.71%
Cc1ccccc1C(=O)Nc1c(C)nc(Nc2ccccc2)nc1Nc1ccccc1	inactive: -6.71%
CC(=O)N1c2ccc(S(=O)(=O)NCC3CCC(C(=O)Nc4cccc(C)c4C)CC3)cc2CC1C (stereo unspecified)	inactive: -14.3%
Cc1ccc(NC(=O)Cn2nc(C)n3cccc3c2=O)c(C)c1	inactive: 5.21%
COc1ccc(Nc2nc3c(S(=O)(=O)c4ccccc4)nnn3c3ccsc23)cc1OC	inactive: 13.5%
COc1ccc(CCNC(=O)c2cn(C)c3ccc(S(=O)(=O)N(C)C4CCCCC4)cc3c2=O)cc1OC	inactive: -12.3%
CC(=O)Nc1ccc(S(=O)(=O)Nc2cc(-c3cn4ccccc4n3)ccc2C)cc1	inactive: -2.69%

Structure (SMILES)	activity change, negative = cytotoxicity
COc1ccc(/C=C/c2nc(C#N)c(NCCc3ccccc3)o2)cc1OC	inactive: 4.36%
Cc1ccc(C)c(Cn2c(=O)cc(C)c3c(C)nn(-c4cccc(F)c4)c32)c1	inactive: -2.7%
COc1ccc(NC(=O)c2cnc(Nc3ccc(C)c(Cl)c3)c3ccccc23)cc1OC	inactive: 15.8%
COc1cccc(-n2c(=O)c3c(C)c(C)sc3n(CC(=O)NCc3ccccc3)c2=O)c1	inactive: 25.4%
COc1ccc(-c2nsc(NC(=O)C(C)Oc3ccc(Cl)c(C)c3)n2)cc1 (stereo unspecified)	inactive: -15.5%
CC(C)CCNC(=O)C1CCN(c2nc3ccc(Cl)cc3[nH]2)CC1	inactive: 1.02%
COc1ccc(C)cc1NC(=O)c1ccc(=O)n(Cc2ccccc2)c1	inactive: 0.737%
COc1ccc(NC(=O)Cn2c(=O)n(-c3ccc(C)cc3)c(=O)c3c2cnn3C)cc1	inactive: 15.3%
O=C(Nc1ccc2nc(SCC(=O)N3CCCC3)sc2c1)c1cccc(Cl)c1	inactive: 0.461%
COC(=O)c1cc2occc2n1Cc1nc(-c2cccc(Cl)c2)oc1C	inactive: 4.27%
Cc1sc2ncn(CC(=O)N3CCN(c4ccc(Cl)cc4)CC3)c(=O)c2c1S(=O)(=O)N1CCN(c2ncccn2)CC1	inactive: -9.76%
CC(C)(C)c1ccc(C(=O)NC2(C(F)(F)F)C(=O)Nc3c2c(=O)[nH]c(=O)n3-c2ccccc2)cc1 (stereo unspecified)	inactive: 6.47%
Cc1cccn2c(=O)c3cc(C(=O)NCc4cccnc4)c(=N)n(CCCO)c3nc12	inactive: -4.71%
CN1CCc2nc3sc(C(=O)Nc4ccccc4OC(F)(F)F)c(N)c3cc2C1	inactive: -17.7%
CC1=Nc2cc(C(=O)NCCc3ccccc3)ccc2Sc2c(C)ccc(C)c21	inactive: -2.66%
Cc1ccc(Cn2c(SCC(=O)C(C)(C)C)nc3ccsc3c2=O)cc1	inactive: 0.08%
CN1CCN(c2nc3c(S(=O)(=O)c4ccccc4)nnn3c3ccsc23)CC1	inactive: 0.686%
Cc1ccc(-n2c(SCC(=O)Nc3cccc(C)c3)nc3c(oc4ccccc43)c2=O)cc1	inactive: -15.4%
CCC(=O)Nc1ccc2nc(SCCOc3ccc(C)cc3)sc2c1	inactive: 2.84%
CCS(=O)(=O)c1ncc(N(Cc2ccc(F)cc2)Cc2ccco2)c(C(=O)Nc2cc(C)ccc2C)n1	inactive: -1.11%
CCOC(=O)C1CCN(C(=O)CN2c3ccc(CC)cc3-c3ccccc3S2(=O)=O)CC1	inactive: 6.05%
CCCn1c(NCc2ccc(N(CC)CC)cc2)nc2ccccc21	inactive: -31.3%
CCCN(CCC)C(=O)Cn1c(=O)n(-c2ccc(OC)cc2)c(=O)c2ccc(C(=O)NCc3ccc(C)cc3)cc21	inactive: -0.612%
